This is one part of the list.
system: PF3D7_0420300 AP2 domain 1 (GST-tagged); test: gcPBM binding intensity (ln(normalized median fluorescence intensity)); higher = stronger DNA binding
Summary of the method: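 Each value is the highest Masliner-normalised natural-log median intensity across replicate spots of either orientation of a probe. The probes were primer-extended double-stranded 36-bp intergenic genomic sequences on an Agilent 4 × 180k array, alongside negative controls, exposed for 1 h to GST-tagged P. falciparum DNA-binding domains expressed in E. coli. Bound protein was picked up with Alexa488 anti-GST antibody and scanned at 488 nm.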

**Q.** How did the “gcPBM binding intensity (ln)” value turn out when CCACGAGAATATATAGTGCATAATAATTTTTTTTTG was run?
**A.** 9.09

**Q.** How did the “gcPBM binding intensity (ln)” value turn out when “GGTGATAATAAGCATACACACACACCCAAAAAAAAA [CACACA_site8137]” was run?
**A.** 9.73

**Q.** Which “gcPBM binding intensity (ln)” value does the source give for “AAAAAAAAAAAGAAAGCACACAATACATATGTATAA [CACACA_site1137]” here?
**A.** 9.44

**Q.** Which “gcPBM binding intensity (ln)” value does the source give for “ATATATATCAGACACACACACATGTTTTAAAACTAT [CACACA_site77]” here?
**A.** 9.92

**Q.** “TAAATTTTTAAATACACACATACACCCATACAGACA [CACACA_site548]” was tested. Which “gcPBM binding intensity (ln)” value did it give?
**A.** 9.76

**Q.** With “TTATTTTAATAACCTACACACATTTTGTATATTTTA [CACACA_site4000]” as the sequence, how does the “gcPBM binding intensity (ln)” value read?
**A.** 9.63

**Q.** How did the “gcPBM binding intensity (ln)” value turn out when “AAATGATGGAAAAAATAAATTTTTGTACAAAAATTA [CACACA_negctrl_site814]” was run?
**A.** 9.05

**Q.** With “TTATAAATATTCTTGGGTACTTAAGATGATATGTAA [XGTACX_site5496]” as the sequence, how does the “gcPBM binding intensity (ln)” value read?
**A.** 8.91

**Q.** How did the “gcPBM binding intensity (ln)” value turn out when TAATAAAATATGTACGTGCACATAATTATACTAAAA was run?
**A.** 9.26

**Q.** “TTTTTTTTATTTTAATGTACATTTTTTATTTGTTAT [XGTACX_site7189]” was tested. Which “gcPBM binding intensity (ln)” value did it give?
**A.** 9.46

**Q.** How did the “gcPBM binding intensity (ln)” value turn out when “TGATACTTTTTTTGTAGTACTCCTAAAATTATAAAA [XGTACX_site4340]” was run?
**A.** 8.93

**Q.** Which “gcPBM binding intensity (ln)” value does the source give for “ATATATATATTATTTCGTACATAATTATTTGCCTTA [XGTACX_site350]” here?
**A.** 9.31

**Q.** “AAAAAAAAAAAAAATTGTACAAAAAAAATAAATAAA [XGTACX_site6816]” was tested. Which “gcPBM binding intensity (ln)” value did it give?
**A.** 9.29

**Q.** “AAAAAAAAAAAAGAAACACACATATTTATATTTATA [CACACA_site6213]” was tested. Which “gcPBM binding intensity (ln)” value did it give?
**A.** 9.32

**Q.** How did the “gcPBM binding intensity (ln)” value turn out when “TATTTATTCACTTATTGTACTTATATATATAATAAA [XGTACX_site6147]” was run?
**A.** 9.26

**Q.** “ATTTTTTTTTGTTTAATGTTATGTGGTCATTAAATT [CACACA_negctrl_site1177]” was tested. Which “gcPBM binding intensity (ln)” value did it give?
**A.** 9.39

**Q.** With “AAATTAAAAGAAAATACACACCTGTGGGTGCTTATA [CACACA_site5143]” as the sequence, how does the “gcPBM binding intensity (ln)” value read?
**A.** 9.18

**Q.** For “AATTAACCGAAACACACACACATATATATATATATA [CACACA_site3963]”, which “gcPBM binding intensity (ln)” value is on record?
**A.** 9.71

**Q.** With “ATATATTTTTTTTAGCGTACATGCAAAAAAAAAAAA [XGTACX_site4590]” as the sequence, how does the “gcPBM binding intensity (ln)” value read?
**A.** 8.82

**Q.** Which “gcPBM binding intensity (ln)” value does the source give for “TCATAAATTAAACACACACACACATCTGGATACCCC [CACACA_site9096]” here?
**A.** 10.3

**Q.** “TTTTGTTGTTGTTGTTGTACATAAATAATAAAATAT [XGTACX_site8681]” was tested. Which “gcPBM binding intensity (ln)” value did it give?
**A.** 9.23

**Q.** Which “gcPBM binding intensity (ln)” value does the source give for “TATACACACAGACATGCATGCACATATATATATACA [TGCATGCA_site30]” here?
**A.** 9.62

**Q.** For “TATACACTTGTAATAACACACATTATTTTTTTTTTT [CACACA_site1324]”, which “gcPBM binding intensity (ln)” value is on record?
**A.** 9.46

**Q.** How did the “gcPBM binding intensity (ln)” value turn out when “ATAAAAAATTTAAGTATTTTTTACAAACCTATAAAT [GTGCAC_negctrl_site51]” was run?
**A.** 9.02

**Q.** How did the “gcPBM binding intensity (ln)” value turn out when “TTATATTTATATGTAATACAAAATAACAAAAAATTT [CACACA_negctrl_site1721]” was run?
**A.** 8.95

**Q.** With “TATATATATATATCCACACACATACATATATTAATA [CACACA_site69]” as the sequence, how does the “gcPBM binding intensity (ln)” value read?
**A.** 9.71

**Q.** With “TTGGTAATTTTAAAATGTACTTATTATATATATATA [XGTACX_site5642]” as the sequence, how does the “gcPBM binding intensity (ln)” value read?
**A.** 9.13

**Q.** How did the “gcPBM binding intensity (ln)” value turn out when “AATATATATACTTTTTTTTTTTTTTTTTTTTTTTTT [CACACA_negctrl_site520]” was run?
**A.** 9.33

**Q.** With “TATGTTTACATATACGTGCACATGAATGTATACATT [GTGCAC_site9894]” as the sequence, how does the “gcPBM binding intensity (ln)” value read?
**A.** 9.15

**Q.** “ACAAATTGTTAAAGGTGTACAATACATATATAAGAA [XGTACX_site4906]” was tested. Which “gcPBM binding intensity (ln)” value did it give?
**A.** 9.48

**Q.** For “TTTAGCACAAACAAAAAAAAAATAGAAAAAAATATA [CACACA_negctrl_site1772]”, which “gcPBM binding intensity (ln)” value is on record?
**A.** 9.27

**Q.** With “TATATACAGAATATATGTACATATTCATTTTATATT [XGTACX_site5139]” as the sequence, how does the “gcPBM binding intensity (ln)” value read?
**A.** 9.21

**Q.** Which “gcPBM binding intensity (ln)” value does the source give for “AAATAAAAAATGGAAATCTTAACAAGAATCATTAAC [CACACA_negctrl_site1626]” here?
**A.** 9.37

**Q.** For “AAAAAATAAATAAATAGTACTTTAAAAGAAAAAAAA [XGTACX_site5051]”, which “gcPBM binding intensity (ln)” value is on record?
**A.** 9.23

**Q.** “CAATGTTACTATAATACACACAATATGTATTTGTCT [CACACA_site6668]” was tested. Which “gcPBM binding intensity (ln)” value did it give?
**A.** 9.56

**Q.** With AAAGAAAACCAAGTGGTGCATTTTCGTTACTTCATC as the sequence, how does the “gcPBM binding intensity (ln)” value read?
**A.** 9.32

**Q.** For “TTGTTTAACTTGTTAAATATAATGTATCTGTGGATA [GTGCAC_negctrl_site108]”, which “gcPBM binding intensity (ln)” value is on record?
**A.** 9.03

**Q.** With “CATATTTTGAACTTCACACATATATATATATATATA [CACACA_site4228]” as the sequence, how does the “gcPBM binding intensity (ln)” value read?
**A.** 9.18

**Q.** How did the “gcPBM binding intensity (ln)” value turn out when “GGTAGATTATTATTAACGAAAAATGTTTTTAACATA [GTGCAC_negctrl_site216]” was run?
**A.** 8.89

**Q.** “AATAATTGTAGACATGCACACACAAATATTATATAT [CACACA_site8181]” was tested. Which “gcPBM binding intensity (ln)” value did it give?
**A.** 9.73

**Q.** For “CCTTTCTATTGAAAATGTACATATATATTATTATAT [XGTACX_site5527]”, which “gcPBM binding intensity (ln)” value is on record?
**A.** 9.22

**Q.** How did the “gcPBM binding intensity (ln)” value turn out when “AATAATTGTTATAGTTGTACAATACATATATTACAA [XGTACX_site30]” was run?
**A.** 9.19

**Q.** Which “gcPBM binding intensity (ln)” value does the source give for “TGTATATATAAAAATATACACACTGTATTATTGTAA [CACACA_site3757]” here?
**A.** 9.21

**Q.** For “TATAAAGACACGTACACACACTAAGTATATCCAATA [CACACA_site6855]”, which “gcPBM binding intensity (ln)” value is on record?
**A.** 9.95

**Q.** For “GTATGATGTGAACATTGTACGAATGAATATATCTAA [XGTACX_site3789]”, which “gcPBM binding intensity (ln)” value is on record?
**A.** 9.04

**Q.** How did the “gcPBM binding intensity (ln)” value turn out when “ATATAAGTATACACATGTACATATTTCTTATGTATA [XGTACX_site2854]” was run?
**A.** 9.32

**Q.** For “AAAAAATTTATAAAAGCACACAAAATAAAAAAAAAT [CACACA_site8420]”, which “gcPBM binding intensity (ln)” value is on record?
**A.** 9.63

**Q.** Which “gcPBM binding intensity (ln)” value does the source give for “AAAATGTTAAATATTAAATATGAAACAAAAAAAAAA [GTGCAC_negctrl_site211]” here?
**A.** 9.21

**Q.** How did the “gcPBM binding intensity (ln)” value turn out when “TATAATTTAAAATACACACACATATATATAATATAT [CACACA_site2000]” was run?
**A.** 9.9

**Q.** With “TCCAAATGAAAAAATTGTACATATTTTATCATATAT [XGTACX_site6159]” as the sequence, how does the “gcPBM binding intensity (ln)” value read?
**A.** 8.94

**Q.** How did the “gcPBM binding intensity (ln)” value turn out when “TAAATACATTTATATACACACCTATATATATATATA [CACACA_site5137]” was run?
**A.** 9.36

**Q.** For “ATAAGAAATTTCATACGTACATAAATAAATATATAT [XGTACX_site2932]”, which “gcPBM binding intensity (ln)” value is on record?
**A.** 9.22

**Q.** “TAAAAAAAAGGAAATACATGCATCTACATATATATA [TGCATGCA_site500]” was tested. Which “gcPBM binding intensity (ln)” value did it give?
**A.** 9.2

**Q.** How did the “gcPBM binding intensity (ln)” value turn out when “AAAAACTAACTGTATTGTACTCTCTTATAAATTCAC [XGTACX_site8967]” was run?
**A.** 9.15

**Q.** How did the “gcPBM binding intensity (ln)” value turn out when “ATATATTTCATTTTTGTACACACAACGTTGGAGGGT [CACACA_site8999]” was run?
**A.** 9.5

**Q.** Which “gcPBM binding intensity (ln)” value does the source give for “AAAAAAAAAATATATATATATATATAATATATATAT [TGCATGCA_negctrl_site329]” here?
**A.** 8.82

**Q.** For “ATATAGGTAATAATAATACACACGGTGAAATATAGA [CACACA_site4040]”, which “gcPBM binding intensity (ln)” value is on record?
**A.** 9.7
